Hit rate of the full screen: of about 50,000 compounds, about 800 (1.6%) showed an effect of 50% or more. The list shows a part of the results.
Each molecule was assayed against Bcl-2-like protein 10 (Homo sapiens) (UniProt Q9HD36) (assay: Phenotype converters, Bcl-B/TR3 peptide binding displacement, primary biochemical FP (AID 1240;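 note: 0% = Bcl-B with tracer peptide and DMSO and 100% = tracer peptide lacking Bcl-B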)). Details: GST-Bcl-B / FITC-TR3 peptide fluorescence polarization; stronger effect = higher value; compound at 3.75 mg/L.
UniProt Q9HD36, sequence (Q9HD36 whole entry, looked up): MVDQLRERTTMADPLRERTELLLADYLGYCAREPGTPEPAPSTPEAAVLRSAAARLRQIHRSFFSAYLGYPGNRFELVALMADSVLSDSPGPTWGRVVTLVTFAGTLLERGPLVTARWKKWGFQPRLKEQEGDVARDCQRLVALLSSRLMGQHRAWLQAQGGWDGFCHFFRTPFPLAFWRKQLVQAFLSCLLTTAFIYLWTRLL
For `NCC1NCCc2ccccc21` (centres undefined), the displacement was -4%. `Cc1cc(/C=N/Nc2ccc([N+](=O)[O-])cn2)c(C)n1-c1ccc(F)cc1` gave a displacement of -12%. Work on `CC1(C(=O)O)CCC(C(=O)Nc2ccccc2O)C1(C)C` (centres undefined) yielded a displacement of -15.5%. `COc1ccc(/C=C/C(=O)Nc2ccc(C(C)=O)cc2)cc1` showed a displacement of 4.5%. In the case of `CCCCCCOc1ccc(N2C(=O)CC(N3CCC(C)CC3)C2=O)cc1` (centres undefined), the displacement is reported as -8.9%. With `COc1ccc(C2NC(=S)NC(C)=C2C(=O)Nc2ccccc2Cl)cc1` (centres undefined) the displacement was -15.9%. Molecule `CCCc1[nH]n(-c2ccc([N+](=O)[O-])cc2)c(=O)c1C=NCCc1ccc(OC)c(OC)c1` has a displacement of -8%. In the case of `CCCOc1ccc(N2C(=O)CC(NCc3ccc(C(=O)O)cc3)C2=O)cc1` (centres undefined), the displacement is reported as -24%. With `O=C(NNC(=O)c1ccc(S(=O)(=O)c2ccccc2)cc1)c1ccc(Br)cc1` the displacement was -6.6%. Molecule `O=C(Nc1sc2c(c1C(=O)Nc1cccc3ccccc13)CCC2)c1ccccc1Br` has a displacement of -8%. For `Cc1ccc(OCc2nc(-c3ccncc3)no2)c(Br)c1`, the displacement was 3.4%. Work on `O=S(=O)(Cc1ccccc1)N1CCN(C/C=C/c2ccccc2)CC1` yielded a displacement of 10.4%. `CC1(C)CC(=O)C2=C(C1)Nc1ccccc1NC2c1coc2c(Cl)cc(Cl)cc2c1=O` (centres undefined) gave a displacement of 5.4%. With `Fc1ccccc1-c1nc(-c2ccc(Br)cc2)no1` the displacement was 4.3%. Molecule `O=C(N/N=C\c1cc(Br)c(Br)o1)c1cncc(Br)c1` has a displacement of 1.8%. `CCc1ccc(-c2nn(-c3cc(N4CCN(C)CC4)ccc3[N+](=O)[O-])c(=O)c3ccccc23)cc1` gave a displacement of 7.8%. `COc1ccc(/C(N)=N/OC(=O)COc2ccccc2)cc1OC` gave a displacement of 7.1%. `COc1ccc(CCN(C(C)=O)C2CC(=O)N(c3ccccc3)C2=O)cc1` (centres undefined) showed a displacement of -6.8%. `NC(=O)C1CCN(C2CC(=O)N(c3ccccc3)C2=O)CC1` (centres undefined) showed a displacement of -1%. For `COc1ccc(NC(=O)c2ccc(C(=O)O)cc2C(=O)O)c(OC)c1`, the displacement was 12.6%. `O=C(c1ccc(N2CCN(C(=O)c3ccc(F)cc3F)CC2)cc1)c1cccc(F)c1` showed a displacement of 72.1%. `CCOc1ccc(S(=O)(=O)N(CC(=O)N(CC)CC)c2ccc(C)cc2)cc1` was tested, and the displacement was 9.5%. `O=C(OCCC1(c2ccccc2)C(=O)c2ccccc2C1=O)c1ccc(Cl)cc1` gave a displacement of 10.9%. Molecule `CS(=O)(=O)N1CCN(C(=O)c2ccccc2F)CC1` has a displacement of 7.3%. In the case of `O=C1Nc2ccccc2C12NN=C(c1ccccc1O)S2` (centres undefined), the displacement is reported as -6.1%. In the case of `CCOC(=O)C1=C(C)NC(=S)NC1c1ccc(OCc2ccccc2)cc1` (centres undefined), the displacement is reported as 5.4%. `Cc1cc([N+](=O)[O-])ccc1NC(=S)NC(=O)c1ccc(Cl)cc1` showed a displacement of -4.6%. `Cn1c(-n2c(CCCN3C(=O)c4ccccc4C3=O)nc3ccccc3c2=O)nc2ccccc21` was tested, and the displacement was 35.4%. With `Clc1ccc(N2CCN(N=Cc3c(Cl)cccc3Cl)CC2)cc1` the displacement was 8.5%.

Reference: PubChem BioAssay AID1240 (Sanford-Burnham Center for Chemical Genomics, 2008)
